Values after ≈ are worked out from the molar mass of the structure shown.
Tests used:
HSV-1 (E-377) = experiment: cytopathogenic effects (CPE)-inhibition procedure, HSV-1, Vero cells; conditions: Human alphaherpesvirus 1, Vero, read-out: MIC50 (minimum inhibitory concentration required for 50% inhibition of virus-induced CPE), HSV-1 (E-377)
Procedure: (§1) Analogs 9a, 10a, 13a, and 14a were evaluated for in vitro antiviral activity against HSV-1. Analogs 9a and 13a were further evaluated for activity against HSV-2. The analogs were evalulated by a cytopathogenic effects (CPE)-inhibition procedure. The host cell culture systems employed were pre-grown Vero cell monolayers. A virus rating of one or greater is indicative of a compound with a favorable balance between its antiviral effect and its cytotoxicity to the host cells.
(§2) *VR = virus rating: A measurement of selective antiviral activity which
(§3) takes into account the degree of inhibition of virusinduced cytopathogeni
(§4) effects (CPE) and the degree of cytotoxicity produced by the test
(§5) compound, determined by a modification of the method of Ehrlich et al.
(§6) (Ann. N.Y. Acad. Sci. 130: 5-16, 1965). A VR ≥ 1.0 indicates
(§7) definite (+) antiviral activity, a VR of 0.5-0.9 indicates marginal to
(§8) moderate (+) antiviral activity, and a VR < 0.5 usually indicates no (-)
(§9) significant antiviral activity.
(§10) **MIC50 = Minimum inhibitory concentration required for 50%
(§11) inhibition of virusinduced CPE (in μg/ml).

HSV-2 (MS) = experiment: cytopathogenic effects (CPE)-inhibition procedure, HSV-2, Vero cells; conditions: Human alphaherpesvirus 2, Vero, read-out: MIC50 (minimum inhibitory concentration required for 50% inhibition of virus-induced CPE), HSV-2 (MS)
Procedure: as §1, §2, §3, §4, §5, §6, §7, §8, §9, §10, §11

Row | Structure (SMILES) | EC50 (HSV-1 (E-377)) | EC50 (HSV-2 (MS))
1 | Nc1nc2c(ncn2[C@@H]2C[C@H](CO)[C@H](O)[C@H]2O)c(=O)[nH]1 (relative stereo) [Compound 9a, (d1)-2-Amino-1,9-dihydro-9-[(1 α,2 β,3 α,4 α)-2,3-dihydroxy-4-(hydroxymethyl)cyclopentyl]-6H-purin-6-one] | 3 µg/mL (≈ 10.7 µM) | 23.5 µg/mL (≈ 83.5 µM)
2 | Nc1nc(N)c2ncn([C@@H]3C[C@H](CO)[C@H](O)[C@H]3O)c2n1 (relative stereo) [Compound 10a] | 85 µg/mL (≈ 303 µM) | 
3 | Nc1nc2c(nnn2[C@@H]2C[C@H](CO)[C@H](O)[C@H]2O)c(=O)[nH]1 (relative stereo) [Compound 13a, (d1)-5-Amino-3,6-dihydro-3-[(1 α,2 β,3 α,5 α)-2,3-dihydroxy-4-(hydroxymethyl)cyclopentyl]-7H-1,2,3-triazalo[4,5-d]pyrimidin-7-one] | 60.8 µg/mL (≈ 215 µM) | 92.2 µg/mL (≈ 327 µM)
4 | Nc1nc(N)c2nnn([C@@H]3C[C@H](CO)[C@H](O)[C@H]3O)c2n1 (relative stereo) [Compound 14a, (d1)-(1 α,2 β,3 α,5 α)-3-(5,7-Diamino-3H-1,2,3-triazalo[4,5-d]pyrimidin-3-yl)-5-(hydroxymethyl)-1,2-cyclopentanediol] | 66.9 µg/mL (≈ 238 µM) | 
5 | Nc1ncnc2c1ncn2[C@@H]1O[C@H](CO)[C@@H](O)[C@@H]1O.O [Ara-A, 9-β-D-arabinofuranosyladenine monohydrate, reference compound] | 21.8 µg/mL | 40.6 µg/mL

— US4742064A, “Antiviral carbocyclic analogs of xylofuranosylpurines” (Regents of the University of Minnesota, priority 1985, dated 1988)
